Only a part is listed here, and it is no random draw. The list includes weakly bound sequences.
Key:
Experiment in all cases: protein-binding microarray (PBM)
Details in all cases: PBM: ~300 nM protein, 6 mM HEPES pH 7.8, 80 mM KCl, 0.5 mM EDTA, 0.5 mM EGTA, 6% glycerol, 35 ng/ul poly-dIdC, 1% milk, 1 h, room temperature; Ap Aiptasia and Nv Nematostella (sea anemones) / Co Capsaspora / Aq Amphimedon (sponge) / Dm Drosophila / Hu human; RHD is the Rel homology domain; high values mean tight binding; most listed sequences are background and not binding sites; double strand, one strand shown
[1] = target: T1, GST-Nv-NF-kB (Cys allele) (UniProt E5G601)
T1 sequence: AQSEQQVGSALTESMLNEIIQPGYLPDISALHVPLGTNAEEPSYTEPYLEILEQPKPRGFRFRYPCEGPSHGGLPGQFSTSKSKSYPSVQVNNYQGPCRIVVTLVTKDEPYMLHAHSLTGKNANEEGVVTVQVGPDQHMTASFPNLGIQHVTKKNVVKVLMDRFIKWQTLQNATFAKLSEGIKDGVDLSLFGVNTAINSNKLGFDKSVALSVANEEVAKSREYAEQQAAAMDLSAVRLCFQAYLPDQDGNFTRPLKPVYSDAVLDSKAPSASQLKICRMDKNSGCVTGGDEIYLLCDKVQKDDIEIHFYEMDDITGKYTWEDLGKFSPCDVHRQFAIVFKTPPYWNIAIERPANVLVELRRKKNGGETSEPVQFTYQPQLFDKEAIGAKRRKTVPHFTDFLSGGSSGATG

GST-Co-NF-kB = target: T2, GST-Co-NF-kB (UniProt F1ARL5)
T2 sequence: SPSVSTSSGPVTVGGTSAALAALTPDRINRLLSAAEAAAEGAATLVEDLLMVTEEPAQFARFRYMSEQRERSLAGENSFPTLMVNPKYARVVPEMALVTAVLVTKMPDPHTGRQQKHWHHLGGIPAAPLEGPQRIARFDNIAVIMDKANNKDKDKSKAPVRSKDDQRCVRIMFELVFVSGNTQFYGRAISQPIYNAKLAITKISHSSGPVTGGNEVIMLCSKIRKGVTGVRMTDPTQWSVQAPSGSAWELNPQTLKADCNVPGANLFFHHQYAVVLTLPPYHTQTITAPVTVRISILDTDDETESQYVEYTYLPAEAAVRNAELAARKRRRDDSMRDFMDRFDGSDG

GST-Dm-Relish = target: T3, GST-Dm-Relish (UniProt Q94527)
T3 sequence: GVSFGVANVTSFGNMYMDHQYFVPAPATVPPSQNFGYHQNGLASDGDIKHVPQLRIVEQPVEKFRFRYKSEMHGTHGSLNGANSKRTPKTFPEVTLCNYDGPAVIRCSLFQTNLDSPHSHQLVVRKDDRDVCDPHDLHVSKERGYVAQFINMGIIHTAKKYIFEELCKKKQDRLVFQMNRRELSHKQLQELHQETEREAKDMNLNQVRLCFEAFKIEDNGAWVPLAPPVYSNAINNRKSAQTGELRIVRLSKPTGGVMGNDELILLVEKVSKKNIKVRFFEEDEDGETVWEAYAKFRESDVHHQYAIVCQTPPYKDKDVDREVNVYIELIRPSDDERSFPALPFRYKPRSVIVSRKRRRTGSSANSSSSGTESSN

| Sequence | binding signal [1] | binding signal (GST-Co-NF-kB) | binding signal (GST-Dm-Relish) |
| --- | --- | --- | --- |
| CCGATTAACATCAGGAGTTACCCTGATGTTAATCGGGTCTTGATTCGCTTGACGCTGCTG | 3.81 z-score | 2.23 z-score | 5.11 z-score |
| CCGATTAACATCAGGCGAACCCCTGATGTTAATCGGGTCTTGATTCGCTTGACGCTGCTG | 1.1 z-score | -0.504 z-score | 1.37 z-score |
| CCGATTAACATCAGGGCTTCCCATGATGTTAATCGGGTCTTGATTCGCTTGACGCTGCTG | 0.817 z-score | 1.01 z-score | 8.36 z-score |
| CCGATTAACATCAGGACACCCCATGATGTTAATCGGGTCTTGATTCGCTTGACGCTGCTG | 0.579 z-score | 1.49 z-score | 1.93 z-score |
| CCGATTAACATCAAGGGCATCCCTGATGTTAATCGGGTCTTGATTCGCTTGACGCTGCTG | 0.664 z-score | 0.109 z-score | 5.6 z-score |
| CCGATTAACATCAGGAGAATCCCTGATGTTAATCGGGTCTTGATTCGCTTGACGCTGCTG | 3.24 z-score | 0.187 z-score | 4.39 z-score |
| CCGATTAACATCAATAACCCCCATGATGTTAATCGGGTCTTGATTCGCTTGACGCTGCTG | 4.47 z-score | 2.27 z-score | 5.69 z-score |
| CCGATTAACATCAGGGGTAGAACTGATGTTAATCGGGTCTTGATTCGCTTGACGCTGCTG | 0.839 z-score | 5.07 z-score | 0.965 z-score |
| CCGATTAACATCAGGAACGCCCCTGATGTTAATCGGGTCTTGATTCGCTTGACGCTGCTG | 3.22 z-score | 0.44 z-score | 2.09 z-score |
| CCGATTAACATCAGAAAAGTACCTGATGTTAATCGGGTCTTGATTCGCTTGACGCTGCTG | 6.4 z-score | 0.588 z-score | 8.45 z-score |
| CCGATTAACATCAGTCCCGCACTTGATGTTAATCGGGTCTTGATTCGCTTGACGCTGCTG | 1.95 z-score | 0.933 z-score | 0.495 z-score |
| CCGATTAACATCAGGAACCTCCCTGATGTTAATCGGGTCTTGATTCGCTTGACGCTGCTG | 2.34 z-score | 0.526 z-score | 0.94 z-score |
| CCGATTAACATCAGGGGATTCACTGATGTTAATCGGGTCTTGATTCGCTTGACGCTGCTG | 7.31 z-score | 3.35 z-score | 10.3 z-score |
| CCGATTAACATCAGGCAGTTCCCTGATGTTAATCGGGTCTTGATTCGCTTGACGCTGCTG | 1.3 z-score | 0.766 z-score | 0.202 z-score |
| CCGATTAACATCAGGGGATTATATGATGTTAATCGGGTCTTGATTCGCTTGACGCTGCTG | 9.17 z-score | 4.18 z-score | 6.72 z-score |
| CCGATTAACATCAGGGGATAATATGATGTTAATCGGGTCTTGATTCGCTTGACGCTGCTG | 5.47 z-score | 5.65 z-score | 2.58 z-score |
| CCGATTAACATCACCCCAAACGCTGATGTTAATCGGGTCTTGATTCGCTTGACGCTGCTG | 0.48 z-score | 1.79 z-score | 0.468 z-score |
| CCGATTAACATCAGATATCCCCCTGATGTTAATCGGGTCTTGATTCGCTTGACGCTGCTG | 6.62 z-score | 6.39 z-score | 5.78 z-score |
| CCGATTAACATCAAAAAGTTCCCTGATGTTAATCGGGTCTTGATTCGCTTGACGCTGCTG | 5.3 z-score | 4.37 z-score | 6.54 z-score |
| CCGATTAACATCAGGGGTGCCCATGATGTTAATCGGGTCTTGATTCGCTTGACGCTGCTG | 0.00434 z-score | 0.921 z-score | 3.52 z-score |
| CCGATTAACATCAGGTCGGGAAATGATGTTAATCGGGTCTTGATTCGCTTGACGCTGCTG | 2.6 z-score | 3.1 z-score | 0.39 z-score |
| CCGATTAACATCAAAAAACCCCTTGATGTTAATCGGGTCTTGATTCGCTTGACGCTGCTG | 8.78 z-score | 2.05 z-score | 8.96 z-score |
| CCGATTAACATCAAGGGAACCCCTGATGTTAATCGGGTCTTGATTCGCTTGACGCTGCTG | 3.13 z-score | 0.931 z-score | 9.38 z-score |
| CCGATTAACATCAGGGGGGGTACTGATGTTAATCGGGTCTTGATTCGCTTGACGCTGCTG | 3.45 z-score | 4.54 z-score | 5.04 z-score |
| CCGATTAACATCAGGGTTTTTAGTGATGTTAATCGGGTCTTGATTCGCTTGACGCTGCTG | 1.3 z-score | 0.428 z-score | 2.9 z-score |
| CCGATTAACATCAGTCCCACAGATGATGTTAATCGGGTCTTGATTCGCTTGACGCTGCTG | 1.55 z-score | 0.912 z-score | 0.415 z-score |
| CCGATTAACATCAGGGAAGTCCATGATGTTAATCGGGTCTTGATTCGCTTGACGCTGCTG | 2.51 z-score | 1.08 z-score | 7.44 z-score |
| CCGATTAACATCACGTAAACCCCTGATGTTAATCGGGTCTTGATTCGCTTGACGCTGCTG | 2.68 z-score | 1.08 z-score | 6.43 z-score |
| CCGATTAACATCAGATTTTCCCATGATGTTAATCGGGTCTTGATTCGCTTGACGCTGCTG | 5.14 z-score | – | 1.26 z-score |
| CCGATTAACATCATACCCCCCCATGATGTTAATCGGGTCTTGATTCGCTTGACGCTGCTG | 2.65 z-score | – | 3.98 z-score |

Reference: PMC5700166
